In all, about 340,000 compounds went through this assay and about 6,900 (2%) were called active. No stated cut-off is given here; in the data, active means inhibition above about 30%; inactive means below that, where a call was filed. This is a selection; strong and weak results do not stand in their true shares. The source gives no active or inactive call for entries shown without one.
Target: D(2) dopamine receptor (Homo sapiens) (UniProt P14416)
Test: HTS Assay for Allosteric Antagonists of the Human D2 Dopamine Receptor: Primary Screen for Antagonists; further: 0% is about no effect
Details: HEK293 TREx D2 cells, calcium flux, dopamine EC80; at 10 µM; stronger effect = higher value
How it was run: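 Overnight-induced (tetracycline, 30 C) HEK293 T-REx cells carrying force-coupled D2 receive a no-wash calcium dye, then compound, then EC80 dopamine at 180 s; signals are read kinetically throughout.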

Sequence of UniProt P14416 (P14416 whole entry, looked up): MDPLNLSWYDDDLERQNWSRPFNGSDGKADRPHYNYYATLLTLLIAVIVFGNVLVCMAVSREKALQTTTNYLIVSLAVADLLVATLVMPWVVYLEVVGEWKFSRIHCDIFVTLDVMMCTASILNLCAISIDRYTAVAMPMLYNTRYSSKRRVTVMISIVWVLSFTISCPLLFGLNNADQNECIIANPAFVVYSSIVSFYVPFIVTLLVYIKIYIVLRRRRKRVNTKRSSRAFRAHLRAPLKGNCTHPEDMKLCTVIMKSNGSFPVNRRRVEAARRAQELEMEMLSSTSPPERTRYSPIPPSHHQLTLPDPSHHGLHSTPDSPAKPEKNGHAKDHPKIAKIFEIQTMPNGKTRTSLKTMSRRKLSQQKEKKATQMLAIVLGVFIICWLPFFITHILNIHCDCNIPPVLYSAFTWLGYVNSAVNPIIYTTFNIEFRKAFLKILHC

| Compound | inhibition |
| --- | --- |
| Cc1ccc2nc(-c3cccc(Cl)c3)c(Nc3ccc4c(c3)OCO4)n2c1 | -5.06% |
| Cc1ccc(C)c(NC(=O)N2CCc3cc(S(=O)(=O)N4CCC(C)CC4)ccc32)c1 | 6.41% |
| COc1ccccc1CCNC(=O)C(=O)NCC(c1cccs1)S(=O)(=O)c1ccc(F)cc1 (stereo unspecified) | 10.1% |
| CC(Oc1ccccc1)C(=O)OCc1cc(=O)n2nc(C(C)C)sc2n1 (stereo unspecified) | -16% |
| Fc1ccccc1N1CCN(c2ncc3c(n2)CCN(Cc2ccc(Br)s2)C3)CC1 | 13.4% |
| CC(=O)c1c(NCc2ccccc2)nc(=O)n(-c2ccccc2)c1C | active: 39.7% |
| COc1ccc(CCNc2nc(SCc3ccc(F)cc3)nc3ccccc23)cc1OC | 15.2% |
| O=S(=O)(Nc1ccc(-c2ccc(N3CCCCCC3)nn2)cc1)c1cccc(C(F)(F)F)c1 | 10.5% |
| CC1=C(c2ccc(C)c(C)c2)S(=O)(=O)N=C1N1CCC(C(=O)Nc2ccc(Cl)cc2)CC1 | -16.8% |
| CCc1nn(CC(=O)N2CCN(c3cc(C)ccc3C)CC2)c(=O)c2cc3occc3n12 | -3.45% |
| CNC(=O)c1ccc(CSc2nc3cccnc3n2Cc2cccc(F)c2)cc1 | -10.2% |
| C=CCSc1ncc(CO)n1Cc1ccccc1 | active: 36.5% |
| O=[N+]([O-])c1ccccc1OCCCCN1CCCCC1 | active: 93.9% |
| CCc1ccc(-c2nc(SCC(=O)NCC3CCCO3)c(-c3ccc(F)cc3)[nH]2)cc1 (stereo unspecified) | 26.1% |
| N#Cc1ccc(NC(=O)c2cc(-c3cccc(Cl)c3)on2)cc1 | 23.1% |
| COc1cc(NC(=O)NCCn2nnc3cc(S(=O)(=O)N(C)C)ccc32)cc(OC)c1OC | 0.615% |
| COc1cc(NC(=O)c2cc3cc4ccc(OC)c(Cl)c4nc3s2)cc(OC)c1 | 17.7% |
| CCC(Sc1ccc2nnc(CCNS(=O)(=O)c3ccc(OC)cc3)n2n1)C(=O)OC (stereo unspecified) | 1.76% |
| Cc1ccc(-c2cc3ncc4c(n3n2)-c2ccccc2OC4)cc1 | -3.13% |
| COc1ccc(-c2nc3c4ccccc4n(CC(=O)Nc4ccc(C(C)=O)cc4)c(=O)n3n2)cc1 | 15.6% |
| Cc1ccccc1C(=O)NC1(C(F)(F)F)C(=O)Nc2c1c(=O)[nH]c(=O)n2CCc1ccccc1 (stereo unspecified) | -4.84% |

| Compound | inhibition |
| --- | --- |
| Cc1nc2ccc(S(=O)(=O)NCC(=O)Nc3ccc(C)c(Cl)c3)cc2s1 | 9.54% |
| Cc1cc(C)cc(NC(=O)CSc2nc3c(cnn3-c3ccc(F)cc3)c(=O)[nH]2)c1 | 2.65% |
| O=S(=O)(c1ccc(Cl)cc1)N1CCC(c2ccncc2)CC1 | 5.83% |
| COc1cccc(C(=O)Nc2ccc(C(=O)OCc3cc(=O)n4cc(C)sc4n3)cc2)c1 | 1.17% |
| Cc1nc2c(C(=O)NCCc3ccccc3)c[nH]n2c(=O)c1Cc1ccccc1F | -5.13% |
| COc1cc(NS(=O)(=O)c2cc3c(cc2C)n(C)c(=O)c(=O)n3C)cc(OC)c1 | -6.44% |
| Fc1ccc(Nc2c(-c3c[nH]c4ccccc34)nc3ccccn23)cc1 | -0.899% |
| Cc1ccc(C(=O)Nc2nnc(S(=O)(=O)N3CCCc4ccccc43)s2)cc1 | 25.5% |
| COc1ccc(C(=O)Nc2ccc3nc(N4CCCCC4)cc(C)c3c2)cc1OC | 0.533% |
| COc1ccc(CCNC(=O)c2ccc(CSCc3ccc(C)cc3)o2)cc1OC | 26.7% |
| COCCCNC(=O)C1CCN(C(=O)c2cc3sccc3n2Cc2ccc(Cl)cc2)CC1 | -9.23% |
| Cc1cccc(CSc2ccc3nnc(CCNS(=O)(=O)c4ccccc4)n3n2)c1 | -3.64% |
| CCCCOC(=O)c1ccc(NC(=O)c2cc(=O)c3ccccc3o2)cc1 | -16.5% |
| Cc1ccc(C)c(N2CCN(C(=O)c3cccn4c(=O)c5ccccc5nc34)CC2)c1 | 12.3% |
| O=C(O)CCCn1cc(NC(=O)COc2ccccc2F)cn1 | -0.549% |
| O=C(Nc1ccc(OC(F)(F)F)cc1)C(NS(=O)(=O)c1cccc2nsnc12)c1ccccc1 (stereo unspecified) | -23.3% |
| CCc1ccc(C(=O)c2cn(CC(=O)Nc3ccc(OC)cc3)c3cc4c(cc3c2=O)OCCO4)cc1 | -11.9% |
| O=C(CSc1ncc2c(n1)-c1cc(Cl)ccc1N(Cc1ccccc1)S2(=O)=O)NCc1ccccc1 | 0.448% |
| O=C1CSC2(C(=O)N(Cc3c(F)cccc3Cl)c3ccccc32)N1c1ccc(F)c(F)c1 (stereo unspecified) | 5.05% |
| Cc1ccc(OCCSc2nc3ccccc3n2CC(=O)NC(C)C)cc1 | -11.7% |
| Cc1ccc(-c2nnn3c2nc(N2CCC(C)CC2)c2ccccc23)cc1 | -8.4% |

| Compound | inhibition |
| --- | --- |
| CCOc1ccc(NC(=O)c2ncn(-c3ccccc3)n2)cc1 | 0.714% |
| CCc1ccccc1NC(=O)c1ncoc1-c1ccco1 | 8.46% |
| Cc1cccc(C)c1OCC(=O)Nc1c(C(=O)c2ccccc2)oc2ccccc12 | -9.98% |
| COc1ccc(-c2nnc(SCC(=O)NCCc3ccccc3)nc2-c2ccc(OC)cc2)cc1 | 5.25% |
| Cn1c(CCN2CCN(c3ccccn3)CC2)nc2cc(NS(=O)(=O)c3ccc(Cl)cc3)ccc21 | active: 73.9% |
| Cc1ccc(NC(=O)CSc2nc3nccnc3c(=O)n2CCc2c[nH]c3ccccc23)c(C)c1 | -7.55% |
| COc1ccc(-c2c(C)nn3c(-c4ccccc4)cc(-c4ccccc4)nc23)cc1 | -2.26% |
| Cc1oc2ncn(CC(C)C)c(=O)c2c1C(=O)NCCCN1CCCCC1C (stereo unspecified) | -12.3% |
| COc1cccc(Cn2c(=O)n(CC3CCC(C(=O)N4CCOCC4)CC3)c(=O)c3sccc32)c1 (stereo unspecified) | 7.34% |
| Cc1cc(C)c2c(n1)SCC(=O)N2CC(=O)Nc1cccc(C)c1C | -0.942% |
| CCc1ccc(Cn2c(CNS(=O)(=O)c3ccc4c(c3)CCCC4)nc3cccnc32)cc1 | 15.9% |
| CCOc1ccc(NC(=O)c2oc3ccccc3c2NC(=O)Cc2cccs2)cc1 | -8.35% |
| COc1ccc2nc3cc(Cl)ccc3c(Nc3cc(C(C)C)c(O)cc3C)c2c1 | active: 31.3% |
| CCc1ccc2c(c1)c(=O)c(C(=O)c1ccccc1)cn2CC(=O)Nc1ccc(C)c(Cl)c1 | 2.32% |
| CCc1ccc2c(c1)c(=O)c(C(=O)c1ccc(C)cc1)cn2CC(=O)Nc1ccccc1C | -16.6% |
| CCCCNc1cc(N2CCN(C3CCCCC3)CC2)c2noc3c2c1C(=O)c1ccccc1-3 | 6.32% |
| CCCCC(=O)N1CCN(c2nc3c(C)c(C)ccc3s2)CC1 | -13.9% |
| COc1ccccc1C(O)P(=O)(OC(C)C)c1ccc(N(C)C)cc1 (stereo unspecified) | active: 31.2% |
| Cc1cc(C)c(NC(=O)CSc2cn(CC(=O)N3CCOCC3)c3ccccc23)c(C)c1 | -2.02% |

From PubChem BioAssay AID485344 (National Center for Advancing Translational Sciences (NCATS), 2010)
